Growth of fresh clinical P. falciparum isolates by hypoxanthine uptake over 42 h; for most isolates 1.6-1,647 nM mefloquine, 0.044-87 nM artesunate, 10-10,256 nM chloroquine, 2.4-236 nM lumefantrine. EC50, lower = more sensitive; slope from the same fit, higher = steeper. No active / inactive call. Fits with a coefficient of variation above 100% are not listed here; 15-28% of fits exceed 15%. Isolates are numbered anew.
What was measured:
[1] = compound: T1, OC(c1cc(C(F)(F)F)nc2c(C(F)(F)F)cccc12)C1CCCCN1 [mefloquine]; experiment: slope of the dose-response curve (dimensionless); higher = steeper concentration-effect curve
Protocol: (§1)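 Hypoxanthine uptake by fresh isolates, duplicate serial dilutions, 24 h of drug plus 18 h after the label; sigmoid fit per isolate.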

[2] = compound: T2, CCCCN(CCCC)CC(O)c1cc(Cl)cc2c1-c1ccc(Cl)cc1/C2=C/c1ccc(Cl)cc1 [lumefantrine]; experiment: as above
Protocol: as §1

[3] = compound: T3, CCN(CC)CCCC(C)Nc1ccnc2cc(Cl)ccc12 [chloroquine]; experiment: as above
Protocol: as §1

[4] = compound: T4, C[C@H]1[C@H](OC(=O)CCC(=O)O)O[C@@H]2O[C@@]3(C)CC[C@H]4[C@H](C)CC[C@@H]1[C@@]24OO3 [artesunate]; experiment: as above
Protocol: as §1

[5] = compound: T1, mefloquine
Protocol: as §1

[6] = compound: T2, lumefantrine
Protocol: as §1

[7] = compound: T3, chloroquine
Protocol: as §1

[8] = compound: T4, artesunate
Protocol: as §1

Row | Test System | slope [1] | slope [2] | slope [3] | slope [4] | EC50 of parasite growth [5] | EC50 of parasite growth [6] | EC50 of parasite growth [7] | EC50 of parasite growth [8]
1 | Plasmodium falciparum isolate 176 (pfmdr1 allele: 86N, 1042N, pfmdr1 copies: 1) | 5 | 2.97 | 4.68 | 6.65 | 0.0549 µg/mL | 0.0187 µg/mL | 0.135 µg/mL | 0.00134 µg/mL
2 | Plasmodium falciparum isolate 129 (pfmdr1 allele: 86N, 1042N, pfmdr1 copies: 2) | 1.85 | 1.27 | 3.61 | 5.48 | 0.0456 µg/mL | 0.0361 µg/mL | 0.0922 µg/mL | 0.0023 µg/mL
3 | Plasmodium falciparum isolate 303 (pfmdr1 allele: 86N, 1042N, pfmdr1 copies: 1) | 2.32 | 2.89 | 3.39 | 6.02 | 0.022 µg/mL | 0.0181 µg/mL | 0.0325 µg/mL | 0.000302 µg/mL
4 | Plasmodium falciparum isolate 300 (pfmdr1 allele: 86N, 1042N, pfmdr1 copies: 1) | 2.9 | 2.61 | 6.46 | 5.84 | 0.0341 µg/mL | 0.0173 µg/mL | 0.176 µg/mL | 0.00126 µg/mL
5 | Plasmodium falciparum isolate 16 (pfmdr1 allele: 86N, 1042N, pfmdr1 copies: 1) | 2.52 | 2.33 | 8.17 | 7.26 | 0.0294 µg/mL | 0.0131 µg/mL | 0.174 µg/mL | 0.00119 µg/mL
6 | Plasmodium falciparum isolate 45 (pfmdr1 allele: 86N, 1042N, pfmdr1 copies: 1) | 2.26 | 2.91 | 2.76 | 5.74 | 0.0425 µg/mL | 0.0489 µg/mL | 0.0744 µg/mL | 0.00139 µg/mL
7 | Plasmodium falciparum isolate 25 (pfmdr1 allele: 86N, 1042N, pfmdr1 copies: 3) | 1.27 | 1.54 | 1.27 | 4.71 | 0.0628 µg/mL | 0.0254 µg/mL | 0.114 µg/mL | 0.00177 µg/mL
8 | Plasmodium falciparum isolate 265 (pfmdr1 allele: 86N, 1042N, pfmdr1 copies: 1) | 2.18 | 2 | 9.97 | 10 | 0.0634 µg/mL | 0.0509 µg/mL | 0.176 µg/mL | 0.00251 µg/mL
9 | Plasmodium falciparum isolate 136 (pfmdr1 allele: 86N, 1042N, pfmdr1 copies: 1) | 1.82 | 5.51 | 9.99 | 3.9 | 0.0407 µg/mL | 0.00802 µg/mL | 0.365 µg/mL | 0.000484 µg/mL

Source: the supplement of paper PMC3722116
